The results in this text go back to the supplement of paper PMC8728848.

Test in all cases: glycan array binding signal (z-score within array); higher = stronger binding
Details in all cases: glycan notation: IUPAC condensed, linker removed

Assay [1] deals with Gal(b1-4)GlcNAc(b1-2)[Gal(b1-4)GlcNAc(b1-6)]Man(a1-6)[GlcNAc(b1-4)][Gal(b1-4)GlcNAc(b1-2)Man(a1-3)]Man(b1-4)GlcNAc(b1-4)GlcNAc. In a few lines: (§1)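 Glycan array binding is given as a within-array Z-score, which can be read as non-binding when negative. The arrays, 3228 of them, came from the Consortium for Functional Glycomics database and were retained only where the protein sequence was available. Z-scores were averaged across arrays of the same protein sequence at different concentrations or buffers and across linkers.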

Assay [2] deals with Gal(b1-4)GlcNAc(b1-2)[Gal(b1-4)GlcNAc(b1-6)]Man(a1-6)[GlcNAc(b1-4)][Gal(b1-4)GlcNAc(b1-2)[Gal(b1-4)GlcNAc(b1-4)]Man(a1-3)]Man(b1-4)GlcNAc(b1-4)[Fuc(a1-6)]GlcNAc. A digest of the protocol: as §1
Assay [3] deals with Gal(b1-4)GlcNAc(b1-3)Gal(b1-3)GalNAc. In a few lines:
as §1

The target of assay [4] is Gal(b1-4)GlcNAc(b1-3)Gal(b1-3)GlcNAc. A digest of the protocol: as §1
In assay [5] the target is Gal(b1-4)GlcNAc(b1-3)Gal(b1-4)Glc. In a few lines: as §1
The target in assay [6] is Gal(b1-4)GlcNAc(b1-3)Gal(b1-4)GlcNAc. A digest of the protocol:
as §1

The target of assay [7] is Gal(b1-4)GlcNAc(b1-3)Gal(b1-4)GlcNAc(b1-2)Man(a1-3)[Gal(b1-4)GlcNAc(b1-3)Gal(b1-4)GlcNAc(b1-2)Man(a1-6)]Man(b1-4)GlcNAc(b1-4)GlcNAc. A digest of the protocol: as §1
For assay [8], the target named is Gal(b1-4)GlcNAc(b1-3)Gal(b1-4)GlcNAc(b1-2)Man(a1-3)[Gal(b1-4)GlcNAc(b1-3)Gal(b1-4)GlcNAc(b1-2)Man(a1-6)]Man(b1-4)GlcNAc(b1-4)[Fuc(a1-6)]GlcNAc. In a few lines: as §1
Assay [9] deals with Gal(b1-4)GlcNAc(b1-3)Gal(b1-4)GlcNAc(b1-2)[Gal(b1-4)GlcNAc(b1-3)Gal(b1-4)GlcNAc(b1-6)]Man(a1-6)[Gal(b1-4)GlcNAc(b1-3)Gal(b1-4)GlcNAc(b1-2)Man(a1-3)]Man(b1-4)GlcNAc(b1-4)GlcNAc. A digest of the protocol:
as §1

Assay [10] has as its target Gal(b1-4)GlcNAc(b1-3)Gal(b1-4)GlcNAc(b1-2)[Gal(b1-4)GlcNAc(b1-3)Gal(b1-4)GlcNAc(b1-6)]Man(a1-6)[Gal(b1-4)GlcNAc(b1-3)Gal(b1-4)GlcNAc(b1-2)Man(a1-3)]Man(b1-4)GlcNAc(b1-4)[Fuc(a1-6)]GlcNAc. In a few lines:
as §1

The target in assay [11] is Gal(b1-4)GlcNAc(b1-3)Gal(b1-4)GlcNAc(b1-3)Gal(b1-4)GlcNAc. In a few lines: as §1
Assay [12] addresses Gal(b1-4)GlcNAc(b1-3)Gal(b1-4)GlcNAc(b1-3)Gal(b1-4)GlcNAc(b1-2)Man(a1-3)[Gal(b1-4)GlcNAc(b1-3)Gal(b1-4)GlcNAc(b1-3)Gal(b1-4)GlcNAc(b1-2)Man(a1-6)]Man(b1-4)GlcNAc(b1-4)GlcNAc. A digest of the protocol:
as §1

Assay [13] concerns the target Gal(b1-4)GlcNAc(b1-3)Gal(b1-4)GlcNAc(b1-3)Gal(b1-4)GlcNAc(b1-2)Man(a1-3)[Gal(b1-4)GlcNAc(b1-3)Gal(b1-4)GlcNAc(b1-3)Gal(b1-4)GlcNAc(b1-2)Man(a1-6)]Man(b1-4)GlcNAc(b1-4)[Fuc(a1-6)]GlcNAc. In a few lines: as §1
For assay [14], the target named is Gal(b1-4)GlcNAc(b1-3)Gal(b1-4)GlcNAc(b1-3)Gal(b1-4)GlcNAc(b1-2)[Gal(b1-4)GlcNAc(b1-3)Gal(b1-4)GlcNAc(b1-3)Gal(b1-4)GlcNAc(b1-6)]Man(a1-6)[Gal(b1-4)GlcNAc(b1-3)Gal(b1-4)GlcNAc(b1-3)Gal(b1-4)GlcNAc(b1-2)Man(a1-3)]Man(b1-4)GlcNAc(b1-4)[Fuc(a1-6)]GlcNAc. A digest of the protocol:
as §1

Assay [15] concerns the target Gal(b1-4)GlcNAc(b1-3)Gal(b1-4)GlcNAc(b1-3)Gal(b1-4)GlcNAc(b1-3)Gal(b1-4)GlcNAc(b1-2)Man(a1-3)[Gal(b1-4)GlcNAc(b1-3)Gal(b1-4)GlcNAc(b1-3)Gal(b1-4)GlcNAc(b1-3)Gal(b1-4)GlcNAc(b1-2)Man(a1-6)]Man(b1-4)GlcNAc(b1-4)GlcNAc. A digest of the protocol:
as §1

Assay [16] deals with Gal(b1-4)GlcNAc(b1-3)Gal(b1-4)GlcNAc(b1-3)Gal(b1-4)GlcNAc(b1-3)Gal(b1-4)GlcNAc(b1-2)Man(a1-3)[Gal(b1-4)GlcNAc(b1-3)Gal(b1-4)GlcNAc(b1-3)Gal(b1-4)GlcNAc(b1-3)Gal(b1-4)GlcNAc(b1-2)Man(a1-6)]Man(b1-4)GlcNAc(b1-4)[Fuc(a1-6)]GlcNAc. A digest of the protocol: as §1
Assay [17] deals with Gal(b1-4)GlcNAc(b1-3)Gal(b1-4)GlcNAc(b1-3)Gal(b1-4)GlcNAc(b1-3)Gal(b1-4)GlcNAc(b1-2)[Gal(b1-4)GlcNAc(b1-3)Gal(b1-4)GlcNAc(b1-3)Gal(b1-4)GlcNAc(b1-3)Gal(b1-4)GlcNAc(b1-6)]Man(a1-6)[Gal(b1-4)GlcNAc(b1-3)Gal(b1-4)GlcNAc(b1-3)Gal(b1-4)GlcNAc(b1-3)Gal(b1-4)GlcNAc(b1-2)Man(a1-3)]Man(b1-4)GlcNAc(b1-4)[Fuc(a1-6)]GlcNAc. In a few lines: as §1
Assay [18] has as its target Gal(b1-4)GlcNAc(b1-3)Gal(b1-4)GlcNAc(b1-3)Gal(b1-4)GlcNAc(b1-3)Gal(b1-4)GlcNAc(b1-3)Gal(b1-4)GlcNAc(b1-2)Man(a1-3)[Gal(b1-4)GlcNAc(b1-3)Gal(b1-4)GlcNAc(b1-3)Gal(b1-4)GlcNAc(b1-3)Gal(b1-4)GlcNAc(b1-3)Gal(b1-4)GlcNAc(b1-2)Man(a1-6)]Man(b1-4)GlcNAc(b1-4)GlcNAc. In a few lines:
as §1

For assay [19], the target named is Gal(b1-4)GlcNAc(b1-3)Gal(b1-4)GlcNAc(b1-3)Gal(b1-4)GlcNAc(b1-3)Gal(b1-4)GlcNAc(b1-3)Gal(b1-4)GlcNAc(b1-2)Man(a1-3)[Gal(b1-4)GlcNAc(b1-3)Gal(b1-4)GlcNAc(b1-3)Gal(b1-4)GlcNAc(b1-3)Gal(b1-4)GlcNAc(b1-3)Gal(b1-4)GlcNAc(b1-2)Man(a1-6)]Man(b1-4)GlcNAc(b1-4)[Fuc(a1-6)]GlcNAc. A digest of the protocol:
as §1

Assay [20] has as its target Gal(b1-4)GlcNAc(b1-3)Gal(b1-4)GlcNAc(b1-3)Gal(b1-4)GlcNAc(b1-3)Gal(b1-4)GlcNAc(b1-3)Gal(b1-4)GlcNAc(b1-2)[Gal(b1-4)GlcNAc(b1-3)Gal(b1-4)GlcNAc(b1-3)Gal(b1-4)GlcNAc(b1-3)Gal(b1-4)GlcNAc(b1-3)Gal(b1-4)GlcNAc(b1-6)]Man(a1-6)[Gal(b1-4)GlcNAc(b1-3)Gal(b1-4)GlcNAc(b1-3)Gal(b1-4)GlcNAc(b1-3)Gal(b1-4)GlcNAc(b1-3)Gal(b1-4)GlcNAc(b1-2)Man(a1-3)]Man(b1-4)GlcNAc(b1-4)[Fuc(a1-6)]GlcNAc. In a few lines:
as §1

In assay [21] the target is Gal(b1-4)GlcNAc(b1-3)Gal(b1-4)GlcNAc(b1-3)Gal(b1-4)GlcNAc(b1-3)Gal(b1-4)GlcNAc(b1-3)Gal(b1-4)GlcNAc(b1-3)Gal(b1-4)GlcNAc(b1-2)Man(a1-3)[Gal(b1-4)GlcNAc(b1-3)Gal(b1-4)GlcNAc(b1-3)Gal(b1-4)GlcNAc(b1-3)Gal(b1-4)GlcNAc(b1-3)Gal(b1-4)GlcNAc(b1-3)Gal(b1-4)GlcNAc(b1-2)Man(a1-6)]Man(b1-4)GlcNAc(b1-4)GlcNAc. In a few lines:
as §1

The target in assay [22] is Gal(b1-4)GlcNAc(b1-3)Gal(b1-4)GlcNAc(b1-3)GalNAc. A digest of the protocol: as §1
The target of assay [23] is Gal(b1-4)GlcNAc(b1-3)Gal(b1-4)GlcNAc(b1-3)[Gal(b1-4)GlcNAc(b1-3)Gal(b1-4)GlcNAc(b1-6)]GalNAc. In a few lines:
as §1

The list shows a part of the results.

B1: HPAIIITrx (Helix pomatia), Q1KM18 (protein)
chain: MLFVTIISLGLLAIVHGQCALKTIAFSAAIDREQTFDANQVVIYDIVITNHGNAYDNSTGLFTAPVDGMYSFQLNLLTIKEKEGWLELVHNGQLKVSVYAKQDSTYDSSSNSVIIKMKEGDRVNVRAHKKSGLFGRDDELYNTFSGHFLSGL
B1: the “glycan array binding signal (z-score)” value in assay [1] is -0.228; in [2], -0.416; in assay [3] it was -0.299; in assay [4], -0.382; in assay [5], -0.207; in assay [6] it was -0.39. The “glycan array binding signal (z-score)” value is 1.41 in assay [7]; -0.221 in assay [8]; 0.804 in [9]; -0.279 in assay [10]; -0.284 in [11]; 0.817 in [12]. For the same molecule, the “glycan array binding signal (z-score)” value in [13] is -0.226; in assay [14], -0.28; in assay [15] it was -0.372; in assay [16] it was -0.315; in assay [17], -0.227; in [18], -0.204. Also, the “glycan array binding signal (z-score)” value in assay [19] is -0.322; in [20], -0.322; in assay [21], -0.329; in assay [22], 0.088; in assay [23], 0.179.
